Results as given in paper PMC9792355.
These are yes or no findings as the source states them, for the method shown. Binding seen in cells or lysates may run through a third protein. Some binding calls cover weakened binding; strength is not graded here.

Chains of the proteins cited; added tags and fusions are not shown. Residues count along the entry.
UniProt P07948: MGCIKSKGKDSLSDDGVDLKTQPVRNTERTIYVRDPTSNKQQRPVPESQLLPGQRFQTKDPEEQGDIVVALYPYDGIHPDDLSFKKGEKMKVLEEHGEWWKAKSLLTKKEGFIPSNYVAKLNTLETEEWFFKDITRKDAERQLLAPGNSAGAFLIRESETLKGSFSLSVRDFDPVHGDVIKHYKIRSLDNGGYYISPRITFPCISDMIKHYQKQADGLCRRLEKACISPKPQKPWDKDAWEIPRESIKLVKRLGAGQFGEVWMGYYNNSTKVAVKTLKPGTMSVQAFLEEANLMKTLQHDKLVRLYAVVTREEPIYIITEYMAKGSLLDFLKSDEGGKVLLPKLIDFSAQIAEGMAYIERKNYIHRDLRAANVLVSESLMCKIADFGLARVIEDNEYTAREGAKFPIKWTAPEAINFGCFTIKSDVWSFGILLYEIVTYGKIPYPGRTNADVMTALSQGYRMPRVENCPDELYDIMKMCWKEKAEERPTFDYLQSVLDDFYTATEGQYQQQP
UniProt P42685: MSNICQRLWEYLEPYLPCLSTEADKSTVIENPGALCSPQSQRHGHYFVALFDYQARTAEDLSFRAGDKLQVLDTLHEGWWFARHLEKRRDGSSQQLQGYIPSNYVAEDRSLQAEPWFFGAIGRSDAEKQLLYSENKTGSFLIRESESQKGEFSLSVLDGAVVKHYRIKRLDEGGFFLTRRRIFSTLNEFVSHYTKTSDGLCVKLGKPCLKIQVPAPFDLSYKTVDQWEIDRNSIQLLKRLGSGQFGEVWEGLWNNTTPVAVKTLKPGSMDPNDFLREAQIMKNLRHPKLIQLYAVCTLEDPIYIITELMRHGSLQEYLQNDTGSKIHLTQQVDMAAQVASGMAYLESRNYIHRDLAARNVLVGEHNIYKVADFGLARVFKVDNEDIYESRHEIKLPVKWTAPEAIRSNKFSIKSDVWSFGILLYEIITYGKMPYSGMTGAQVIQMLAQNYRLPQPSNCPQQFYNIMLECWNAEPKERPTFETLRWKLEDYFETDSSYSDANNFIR
UniProt P08631, residues 22-526: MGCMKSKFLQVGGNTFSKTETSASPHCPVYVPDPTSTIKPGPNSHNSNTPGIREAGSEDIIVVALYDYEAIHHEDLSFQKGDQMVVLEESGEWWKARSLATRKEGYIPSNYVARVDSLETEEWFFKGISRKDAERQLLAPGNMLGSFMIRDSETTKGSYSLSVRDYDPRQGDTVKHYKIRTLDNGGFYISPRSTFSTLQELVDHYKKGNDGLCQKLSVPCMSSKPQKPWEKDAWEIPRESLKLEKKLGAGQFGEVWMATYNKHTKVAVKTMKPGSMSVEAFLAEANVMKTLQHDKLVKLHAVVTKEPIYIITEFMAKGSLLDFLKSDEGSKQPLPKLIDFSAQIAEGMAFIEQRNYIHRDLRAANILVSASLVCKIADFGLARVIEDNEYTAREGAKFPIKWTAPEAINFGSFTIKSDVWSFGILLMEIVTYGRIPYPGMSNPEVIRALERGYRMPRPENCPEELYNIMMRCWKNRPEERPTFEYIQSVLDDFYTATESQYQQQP
UniProt P06241: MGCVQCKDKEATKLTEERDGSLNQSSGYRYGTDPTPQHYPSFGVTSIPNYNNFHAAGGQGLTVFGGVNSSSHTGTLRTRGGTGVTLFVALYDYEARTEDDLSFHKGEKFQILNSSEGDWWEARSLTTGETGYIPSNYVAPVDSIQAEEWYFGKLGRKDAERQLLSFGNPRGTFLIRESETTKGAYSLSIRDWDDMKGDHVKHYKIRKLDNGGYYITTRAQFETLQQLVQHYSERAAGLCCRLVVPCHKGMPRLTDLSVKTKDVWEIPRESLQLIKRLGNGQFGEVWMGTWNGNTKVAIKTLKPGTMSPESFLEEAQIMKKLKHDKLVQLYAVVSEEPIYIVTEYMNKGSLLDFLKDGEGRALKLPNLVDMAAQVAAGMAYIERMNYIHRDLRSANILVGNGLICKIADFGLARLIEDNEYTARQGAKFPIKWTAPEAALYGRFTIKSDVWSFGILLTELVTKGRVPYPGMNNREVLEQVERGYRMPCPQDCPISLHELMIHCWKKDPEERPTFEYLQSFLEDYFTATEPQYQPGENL
UniProt Q9H3Y6: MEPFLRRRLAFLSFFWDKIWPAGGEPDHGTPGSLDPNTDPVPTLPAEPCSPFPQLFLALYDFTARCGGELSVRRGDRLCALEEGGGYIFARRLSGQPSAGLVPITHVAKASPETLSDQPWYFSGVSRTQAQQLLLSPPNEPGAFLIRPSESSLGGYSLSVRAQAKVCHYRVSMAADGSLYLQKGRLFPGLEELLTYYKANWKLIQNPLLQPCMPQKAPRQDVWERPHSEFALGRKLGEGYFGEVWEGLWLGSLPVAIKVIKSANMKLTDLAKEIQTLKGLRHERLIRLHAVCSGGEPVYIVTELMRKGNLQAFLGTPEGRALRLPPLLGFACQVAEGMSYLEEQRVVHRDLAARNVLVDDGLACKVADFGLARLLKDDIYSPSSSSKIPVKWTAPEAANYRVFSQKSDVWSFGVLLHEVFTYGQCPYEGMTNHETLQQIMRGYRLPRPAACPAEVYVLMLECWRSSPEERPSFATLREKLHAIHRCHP
UniProt P07947: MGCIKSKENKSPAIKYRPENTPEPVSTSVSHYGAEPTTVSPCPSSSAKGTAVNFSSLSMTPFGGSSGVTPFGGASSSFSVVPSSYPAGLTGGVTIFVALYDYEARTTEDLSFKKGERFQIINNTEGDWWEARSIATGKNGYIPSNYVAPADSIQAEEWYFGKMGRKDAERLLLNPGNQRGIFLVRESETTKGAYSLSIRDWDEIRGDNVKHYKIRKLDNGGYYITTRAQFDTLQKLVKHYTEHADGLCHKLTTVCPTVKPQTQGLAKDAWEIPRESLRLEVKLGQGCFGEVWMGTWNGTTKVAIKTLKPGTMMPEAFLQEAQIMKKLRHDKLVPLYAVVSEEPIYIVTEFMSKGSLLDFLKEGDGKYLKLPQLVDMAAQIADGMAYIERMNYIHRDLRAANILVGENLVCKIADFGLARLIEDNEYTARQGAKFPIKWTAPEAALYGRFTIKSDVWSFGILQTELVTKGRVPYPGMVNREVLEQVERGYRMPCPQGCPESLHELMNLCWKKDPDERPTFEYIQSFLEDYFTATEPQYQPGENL
UniProt P06239: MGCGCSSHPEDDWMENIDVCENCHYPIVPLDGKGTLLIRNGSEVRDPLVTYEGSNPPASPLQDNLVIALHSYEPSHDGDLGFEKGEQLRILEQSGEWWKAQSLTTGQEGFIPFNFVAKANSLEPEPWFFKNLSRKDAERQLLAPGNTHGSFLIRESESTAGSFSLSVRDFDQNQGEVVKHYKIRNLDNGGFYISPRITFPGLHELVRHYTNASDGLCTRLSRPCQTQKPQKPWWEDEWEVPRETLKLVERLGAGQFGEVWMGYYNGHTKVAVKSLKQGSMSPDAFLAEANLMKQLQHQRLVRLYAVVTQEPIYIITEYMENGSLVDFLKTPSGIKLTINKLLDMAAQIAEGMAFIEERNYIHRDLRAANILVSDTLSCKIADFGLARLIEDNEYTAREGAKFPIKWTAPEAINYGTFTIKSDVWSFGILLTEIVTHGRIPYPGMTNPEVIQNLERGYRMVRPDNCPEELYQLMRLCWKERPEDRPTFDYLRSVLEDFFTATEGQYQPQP
UniProt P51451: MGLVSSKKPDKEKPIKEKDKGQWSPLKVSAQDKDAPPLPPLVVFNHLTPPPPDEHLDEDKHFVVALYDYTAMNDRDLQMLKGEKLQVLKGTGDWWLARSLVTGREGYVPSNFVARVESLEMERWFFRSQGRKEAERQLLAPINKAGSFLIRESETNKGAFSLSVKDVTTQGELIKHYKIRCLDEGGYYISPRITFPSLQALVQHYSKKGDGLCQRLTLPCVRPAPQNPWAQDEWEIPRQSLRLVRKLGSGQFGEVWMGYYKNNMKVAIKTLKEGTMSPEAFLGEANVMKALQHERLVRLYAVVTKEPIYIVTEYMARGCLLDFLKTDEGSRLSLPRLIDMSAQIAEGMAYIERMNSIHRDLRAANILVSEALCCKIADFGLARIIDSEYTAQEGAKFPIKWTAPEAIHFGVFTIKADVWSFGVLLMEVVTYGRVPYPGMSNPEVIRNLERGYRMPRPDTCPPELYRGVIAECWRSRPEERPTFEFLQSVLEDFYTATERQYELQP

Key:
Assay in all cases: split reporter; Gaussia princeps luciferase complementation assay (GPCA) in HEK293T cells: Gluc2 on SKAP2/SKAP1, Gluc1 at the N (N1) or C (C1) terminus of the SRC kinase; 100 ng plasmid pair, luminescence read after lysis; normalized luminescence ratio (NLR), for mutants divided by that of wildtype SKAP2; loss of interaction = mean relative NLR among the nine kinases below 0.25
[1] = biological target: N1-fused LYN (LCK/Yes-related novel protein tyrosine kinase) (UniProt P07948)
[2] = biological target: C1-fused FRK (Fyn-related Src family tyrosine kinase) (UniProt P42685)
[3] = biological target: N1-fused HCK (hematopoietic cell kinase), wildtype (UniProt P08631)
[4] = biological target: C1-fused FYN (FGR-YES1-related novel protein) (UniProt P06241)
[5] = biological target: C1-fused SRMS (Src-related kinase lacking C-terminal regulatory tyrosine and N-terminal myristylation sites) (UniProt Q9H3Y6)
[6] = biological target: C1-fused LYN (LCK/Yes-related novel protein tyrosine kinase) (UniProt P07948)
[7] = biological target: N1-fused SRMS (Src-related kinase lacking C-terminal regulatory tyrosine and N-terminal myristylation sites) (UniProt Q9H3Y6)
[8] = biological target: N1-fused FRK (Fyn-related Src family tyrosine kinase) (UniProt P42685)
[9] = biological target: N1-fused FYN (FGR-YES1-related novel protein) (UniProt P06241)
N1-fused YES = N1-fused YES (UniProt P07947)
[10] = biological target: C1-fused LCK (lymphocyte-specific kinase) (UniProt P06239)
[11] = biological target: N1-fused BLK (B lymphocyte kinase) (UniProt P51451)
[12] = biological target: C1-fused HCK (hematopoietic cell kinase), wildtype (UniProt P08631)

- binding [1]: binds
- binding [2]: binds
- binding [3]: binds
- binding [4]: binds
- binding [5]: binds
- binding [6]: binds
- binding [7]: binds
- binding [8]: binds
- binding [9]: binds
- binding (N1-fused YES): binds
- binding [10]: binds
- binding [11]: binds
- binding [12]: binds
B1: N2-SKAP1 (SRC kinase adaptor phosphoprotein 1) (protein, UniProt Q86WV1 1-359)
chain: MQAAALPEEIRWLLEDAEEFLAEGLRNENLSAVARDHRDHILRGFQQIKARYYWDFQPQGGDIGQDSSDDNHSGTLGLSLTSDAPFLSDYQDEGMEDIVKGAQELDNVIKQGYLEKKSKDHSFFGSEWQKRWCVVSRGLFYYYANEKSKQPKGTFLIKGYGVRMAPHLRRDSKKESCFELTSQDRRSYEFTATSPAEARDWVDQISFLLKDLSSLTIPYEEDEEEEEKEETYDDIDGFDSPSCGSQCRPTILPGSVGIKEPTEEKEEEDIYEVLPDEEHDLEEDESGTRRKGVDYASYYQGLWDCHGDQPDELSFQRGDLIRILSKEYNMYGWWVGELNSLVGIVPKEYLTTAFEVEER
